From the supplement of paper PMC11417369
The other results are listed elsewhere or left out.

These sequences were tested on PF3D7_0420300 AP2 domain 1 (GST-tagged) (assay: gcPBM binding intensity (ln(normalized median fluorescence intensity)); higher = stronger DNA binding).
Procedure, shortened: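 In this array assay, P. falciparum DNA-binding domains with a GST tag, expressed in E. coli, were applied for 1 h to primer-extended double-stranded 36-bp intergenic genomic probes and negative controls on an Agilent 4 × 180k array. Bound protein was visualised with Alexa488 anti-GST antibody at 488 nm. Binding intensity is the highest Masliner-normalised natural-log median intensity across replicate spots of either probe orientation.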

Row | Sequence | gcPBM binding intensity (ln)
1 | CAATCTTTTACGAATACACACACATAAAGAAAAAAA [CACACA_site8367] | 9.71
2 | TTAAATAAATAAAAATGTACATGCATATATAAATAT [XGTACX_site8908] | 9.34
3 | AATTTTTTATATGTCACACATTTGTTATTATTATTA [CACACA_site4197] | 9.56
4 | ACATATAGAAGTATCTATAAACAGTGATAGCATTTT [CACACA_negctrl_site1122] | 9.21
5 | AAAAAGAATAAATAAATATAAATAAATAAATATATA [GTGCAC_negctrl_site336] | 9.19
6 | AAAAAAAAATGTCATGGTACACAATTTTTTCTTTTT [XGTACX_site4505] | 9
7 | TAAAGTAAAACAAGGTAAGGTTTTTCTTTTTCTTTT [CACACA_negctrl_site1271] | 9
8 | TAGATTATTTTATTTAGTACATAAAAAAGTAAGACC [XGTACX_site7889] | 9.28
9 | AATAAATTATGAACGGTGCAGGAAAAATTGTAACAT | 9.82
10 | AAACATAAGGGACACACACACATATATATATATATA [CACACA_site5920] | 9.75
11 | CAAAAAAACAAACACACACACACACCGATATATATA [CACACA_site9218] | 10.2
12 | TGAAGTGCAAAATACTGTACGTAATGTGCTTGTTAC [XGTACX_site4512] | 9.26
13 | CATTATGTCGTAAATACACACATACAGATACATACA [CACACA_site4880] | 9.59
14 | AAATTAAATAAATTTACACACTAAAAATTACAGATA [CACACA_site4722] | 9.48
15 | GTTATATATAATAATTGTACAAAATTAAATATAACT [XGTACX_site4189] | 9.16
16 | AAAAAACACCCACATACACACAAAAATGTTATAAAT [CACACA_site81] | 9.94
17 | TTTTTATTTGGTTGTGTACACATATATATATATATA [CACACA_site5844] | 9.45
18 | CTAAGAAAAAATAAAGCACACAAATATTTTAAAAAC [CACACA_site9094] | 9.71
19 | AAAACACAAAAAAAATGTACACATATATATATATAT [XGTACX_site8509] | 9.29
20 | TAACTATATTTTTACTGTACAAAAAAATTAAATAAT [XGTACX_site1765] | 9.02
21 | ATATTAATTCTACATTGTACACATGAAAAAATATAA [XGTACX_site8759] | 9.21
22 | ATACAATTTATTTTAACACACGAATGAATTGATTAT [CACACA_site4160] | 9.39

Row | Sequence | gcPBM binding intensity (ln)
23 | ATACAAATATACTTTTGTACGAAGAAATATATATAT [XGTACX_site3912] | 9.19
24 | ATAAAAAAAATAAAAAGTACAAAAAAAAAAAATGGA [XGTACX_site136] | 9.74
25 | TAAAGAAACTATTCAACACACGGTCTAATTATTACA [CACACA_site1064] | 9.33
26 | AAAAATAAACGACAGTGTACTAAATATTTAATTTTC [XGTACX_site3580] | 9.47
27 | TATTCTAAAGAAATTACACACATGCAATGAAAAAAA [CACACA_site6895] | 9.41
28 | CAGGGCAGGGGGAAGGGTACACATAAAAGAAAATAA [XGTACX_site172] | 9.51
29 | TATAAATATATATTTTGTACTTAATATAAATTTATA [XGTACX_site7996] | 8.98
30 | AAAAAAAAATATAACAGTACATAAACATATGAATAT [XGTACX_site7093] | 9.48
31 | TCAACCAAAACATAAGCATGCAATATATTTTTATAC [TGCATGCA_site560] | 9.31
32 | TTTTATAATTTCTTCTGTACATATATATGAAAATAT [XGTACX_site74] | 9.08
33 | TTATATATTTTTATGTGTACTTATATATATATATAT [XGTACX_site6211] | 9.32
34 | ATTTCCCTATATAGAGCATGCACTATATTCAAATGA [TGCATGCA_site531] | 9.05
35 | AACAAAAACACTTTTACACACATAAGTAAAATATAT [CACACA_site1994] | 9.81
36 | TACTTATTTAAAATAGTGCATGAATAGAAGATATAT [GTGCAC_site9756] | 9.17
37 | CTAAAAAATAGTAAAAGTACATAAATAATTTTGCTT [XGTACX_site8919] | 9.2
38 | TTACACATGTTTAACTGTACACATAATAGCAATATT [XGTACX_site8545] | 9.29
39 | ACAATTATTTTGTTCTTTAATGGTAGGTTCTATGTC [CACACA_negctrl_site1419] | 9.25
40 | AATACACGCAGACACACACACACACGCACATATATA [CACACA_site6447] | 10.3
41 | CATAAATTACTTTTTACACACTAAAATAAAATACAA [CACACA_site1135] | 9.37
42 | AATAATATTTAATACACACACCAGTTCTGCAAATTT [CACACA_site7712] | 9.71
43 | GAAAAAAGAAATTAAACATGCATCTGCAAATTTAAA [TGCATGCA_site974] | 9.06
44 | AATAGTAAAAGATATACACACACCAAAAAATATAAT [CACACA_site5293] | 9.99

Row | Sequence | gcPBM binding intensity (ln)
45 | TGCTACATTTTATGTACACACATATACAGATATATA [CACACA_site4646] | 9.42
46 | TGAATAAATCAAAGCACACATACACCCACATATATA [CACACA_site286] | 9.56
47 | ACATAATAAAAATAAATTCATAAGTAAATAAATAAA [TGCATGCA_negctrl_site186] | 9.31
48 | TATATATATATATGATGTACATGAAAATTTCCAAAA [XGTACX_site5472] | 9.27
49 | TATATTTTTTAATTCACACAAAAATGAAAAATATTT [CACACA_site6001] | 8.95
50 | ATATCTGAAGTGTAAAGTACATATATATATTCATAT [XGTACX_site4612] | 9.3
51 | CAATTTTACTCATAAACACACATATAGATGTTATTA [CACACA_site7474] | 9.2
52 | AATATAAATAATAGTAGTACATATATATCTCAGAAA [XGTACX_site4055] | 9.4
53 | AATGGAGTTTATAAGTATAAACGAGGGATACCTAAA [XGTACX_negctrl_site483] | 9.33
54 | TAAATAAATTTATACACACACACACCCATATATATA [CACACA_site849] | 10.2
55 | AAAAAATCAAAACACACACACACACTAGAAAAAAAA [CACACA_site4909] | 10.3
56 | TTATGTTGTAAATGCACACATACATATACGCAGTTT [CACACA_site3015] | 9.29
57 | AATAAAAATATATCCACACACATATATATATCTGTA [CACACA_site4481] | 9.68
58 | TATATTATATTTTTATGTACATATATGTTTTTTTTT [XGTACX_site8239] | 9.51
59 | ATTTTATCAAGAGGAAGTACATTACCCCATGAAAAA [XGTACX_site8295] | 9.15
60 | TATAATATATATATATTTATATATATCTTCCTAATC [GTGCAC_negctrl_site682] | 8.89
61 | TTTTTTTATATAGACACAAAAGAAAATTACATATAC [CACACA_negctrl_site235] | 9.13
62 | GATTTGTCTTACAGTGGTACACTTATATATATGTGA [XGTACX_site2899] | 9.34
63 | AATATTTATTTTATATGTACATAATTTATTTTTAAT [XGTACX_site776] | 9.26
64 | AAAAAAAAAAAAAAAACACACAAGGATCATATATAT [CACACA_site3812] | 9.81
65 | TATGAAGTACACAATACACACTAATTATATATAAAT [CACACA_site5444] | 9.57
66 | TTTTTAAAAAAACATACACACAAAAAAAAAAAAAAA [CACACA_site3935] | 9.11

Row | Sequence | gcPBM binding intensity (ln)
67 | TATATATATTATAATACATGCGGTGATGAAAGTTAT [TGCATGCA_site924] | 9.5
68 | TATAAATATAGACACACACACACCAAAGCGTAGCGC [CACACA_site6179] | 9.88
69 | AAAAAACATTTTCGAGTGCATGTTTTGCTTTATTTC | 9.22
70 | AATAATTTGGTCTTATCAAAAATTAAAAATAAATAA [XGTACX_negctrl_site430] | 8.95
71 | TTAAATGTTAAAAGGGTGCTATTATATAAATGAAAA [GTGCAC_site9882] | 9.16
72 | TTCATATGTTTTAACACACACGCATATATTATATAT [CACACA_site2007] | 9.8
73 | AAATAAAAATAAAATAAAATAAAATTAAATGGGAAT [GTGCAC_negctrl_site349] | 9.54
74 | GTTTTATATTATATATGTACATATCCATGAGATATA [XGTACX_site3328] | 9.4
75 | TTTAACTTTTATATAACACACATATTGTAATTATGT [CACACA_site6486] | 9.43
76 | TGTAAACATAAGATATGTACTTATATCATATTATAA [XGTACX_site6883] | 9.1
77 | ATGACAATTCAAAATTGTACATAAAAAAAAAAAAAA [XGTACX_site7560] | 8.83
78 | AAAAAAAAAAAAAAAGCACACACCAATGAGCAGCTT [CACACA_site1845] | 9.33
79 | CACACCCACAGACACACACACACATATATAATATAT [CACACA_site594] | 10.2
80 | TATAATCATATACACGCATGTATAAAATTTAATACT [TGCATGCA_site700] | 9.22
81 | TAATATATGTATTATGCATGTGAATAAGCACTTGAT [TGCATGCA_site848] | 9.14
82 | ATATGTTACAAAGATTGTACTTATTAAGGAGCGACT [XGTACX_site5094] | 9.3
83 | ACATTCAAGCGTAATTGTACATACATATATATATAT [XGTACX_site8876] | 9.42
84 | ATGTATATAAATAGTAGTACATTATTTCACACTGTA [XGTACX_site2061] | 9.27
85 | TATTGTATCCTTAATGCATGCACCAAATAAAAAAAG [TGCATGCA_site541] | 9.11
86 | ACCATATGTACATTTTTTTTTTTTTTTTTTTTTTTT [CACACA_negctrl_site1188] | 9.45
87 | ATATATATATAATGTAGTACTATTTAATAATAAGCC [XGTACX_site1263] | 9.61
88 | TAAAAAAATTTTACAAGTACAAAAAAATGTAATAAA [XGTACX_site4829] | 9.22
